From paper PMC6092318, “Keap1–MCM3 interaction is a potential coordinator of molecular machineries of antioxidant response and genomic DNA replication in metazoa” (Scientific Reports, 2018) come the findings set out here.

Chains of the proteins cited; added tags and fusions are not shown. Lines headed by an entry give the natural chain unless they say otherwise; changes in a name come on top.
UniProt Q9Z2X8: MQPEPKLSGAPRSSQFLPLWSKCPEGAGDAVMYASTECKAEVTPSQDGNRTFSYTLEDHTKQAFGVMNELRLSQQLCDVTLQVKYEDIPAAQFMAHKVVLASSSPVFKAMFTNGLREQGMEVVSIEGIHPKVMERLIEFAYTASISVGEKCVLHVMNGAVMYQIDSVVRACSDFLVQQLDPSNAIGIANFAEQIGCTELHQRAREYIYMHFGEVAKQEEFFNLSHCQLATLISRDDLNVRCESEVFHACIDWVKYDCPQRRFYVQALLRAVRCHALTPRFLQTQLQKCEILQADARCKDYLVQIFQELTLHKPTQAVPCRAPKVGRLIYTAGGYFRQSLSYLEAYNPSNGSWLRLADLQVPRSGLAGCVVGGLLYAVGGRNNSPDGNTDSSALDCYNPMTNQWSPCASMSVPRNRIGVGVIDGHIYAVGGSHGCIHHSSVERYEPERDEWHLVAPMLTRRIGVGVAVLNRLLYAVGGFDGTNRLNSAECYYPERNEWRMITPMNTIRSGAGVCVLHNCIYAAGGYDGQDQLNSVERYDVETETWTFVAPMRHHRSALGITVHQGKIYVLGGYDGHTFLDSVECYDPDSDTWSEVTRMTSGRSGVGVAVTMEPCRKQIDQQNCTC
UniProt Q61881: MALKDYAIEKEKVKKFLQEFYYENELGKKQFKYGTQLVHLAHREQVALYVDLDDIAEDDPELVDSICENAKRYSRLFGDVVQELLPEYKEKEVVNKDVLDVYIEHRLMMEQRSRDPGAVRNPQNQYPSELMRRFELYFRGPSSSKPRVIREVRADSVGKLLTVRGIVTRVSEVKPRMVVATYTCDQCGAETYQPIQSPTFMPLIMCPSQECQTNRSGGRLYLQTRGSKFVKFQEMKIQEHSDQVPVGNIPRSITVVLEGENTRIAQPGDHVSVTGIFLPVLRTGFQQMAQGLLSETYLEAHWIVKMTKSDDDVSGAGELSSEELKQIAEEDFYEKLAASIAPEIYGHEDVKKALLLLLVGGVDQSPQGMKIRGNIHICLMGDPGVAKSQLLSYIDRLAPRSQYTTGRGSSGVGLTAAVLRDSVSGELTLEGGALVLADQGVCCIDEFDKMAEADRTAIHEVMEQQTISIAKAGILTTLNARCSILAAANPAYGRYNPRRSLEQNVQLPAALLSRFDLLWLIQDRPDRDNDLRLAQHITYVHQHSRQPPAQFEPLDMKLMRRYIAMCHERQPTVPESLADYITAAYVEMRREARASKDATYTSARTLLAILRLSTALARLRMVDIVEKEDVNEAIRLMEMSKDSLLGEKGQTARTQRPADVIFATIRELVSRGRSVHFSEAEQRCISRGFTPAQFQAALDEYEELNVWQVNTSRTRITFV

Where two headings read alike, the source gives them in different places. These are yes or no findings as the source states them, for the method shown. For part of these data: In cells and extracts the contact can be indirect. Some entries that bind do so weakly or less than the wild type. For part of these data: Tags and fused reporters may be left off the sequences shown.

Test [1] addresses strep-Keap1 (mouse, wild type, baculovirus) (mouse) (UniProt Q9Z2X8). Nature of the test: pull-down; Strep-Tactin beads (strep-Keap1 as bait) on extracts of baculovirus co-infected Sf9 cells, 1 hr at 4 °C, washes with 250 mM KCl buffer pH 7.8, Western blot. On the technique in general: A western blot detects proteins with antibodies after separation by electrophoresis.
Test [2] has as its target strep-Keap1 mutant R380A/R415A (mouse, baculovirus) (mouse) (UniProt Q9Z2X8). The test is described as above.
For test [3], the target named is T1, FLAG-MCM3 (mouse, wild type, baculovirus) (mouse) (UniProt P25206).
T1 sequence: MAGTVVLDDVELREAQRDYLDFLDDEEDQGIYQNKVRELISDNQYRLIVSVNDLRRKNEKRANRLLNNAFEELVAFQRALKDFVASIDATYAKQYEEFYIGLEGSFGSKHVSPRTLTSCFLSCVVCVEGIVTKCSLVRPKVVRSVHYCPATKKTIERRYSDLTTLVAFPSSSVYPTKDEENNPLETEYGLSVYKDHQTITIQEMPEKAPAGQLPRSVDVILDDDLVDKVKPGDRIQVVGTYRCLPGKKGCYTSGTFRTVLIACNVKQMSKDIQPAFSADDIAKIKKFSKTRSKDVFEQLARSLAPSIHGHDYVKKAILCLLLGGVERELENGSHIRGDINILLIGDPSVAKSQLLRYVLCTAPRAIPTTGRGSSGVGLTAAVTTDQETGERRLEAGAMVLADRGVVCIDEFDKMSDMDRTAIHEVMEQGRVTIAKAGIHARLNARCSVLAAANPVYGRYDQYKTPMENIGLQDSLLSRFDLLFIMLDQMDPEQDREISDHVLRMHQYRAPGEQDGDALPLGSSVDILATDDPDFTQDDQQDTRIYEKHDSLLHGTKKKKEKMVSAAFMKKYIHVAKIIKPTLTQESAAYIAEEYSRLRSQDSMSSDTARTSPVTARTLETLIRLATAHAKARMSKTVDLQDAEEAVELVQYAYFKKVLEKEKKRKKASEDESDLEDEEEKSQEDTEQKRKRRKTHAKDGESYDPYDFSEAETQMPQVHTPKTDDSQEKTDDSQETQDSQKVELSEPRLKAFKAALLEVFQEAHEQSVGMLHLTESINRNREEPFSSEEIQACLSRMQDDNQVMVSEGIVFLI
Briefly: SEC; MCM2-7 from baculovirus co-expression in Sf9 cells, size exclusion chromatography profile (Supplementary Fig. S7); details not shown. On the technique in general: Size exclusion chromatography separates by hydrodynamic size, large species first.

The target in test [4] is strep-Keap1 mutant R380A/R415A (mouse, baculovirus) (mouse) (UniProt Q9Z2X8). Nature of the test: pull-down; Strep-Tactin beads (strep-Keap1 as bait) on extracts of baculovirus co-infected Sf9 cells, 1 hr at 4 °C, washes with 250 mM KCl buffer pH 7.8, Western blot. This is another data set of the same source.
Test [5] addresses T1, FLAG-MCM3 (mouse, wild type, baculovirus) (mouse). Nature of the test: co-IP; anti-FLAG beads (FLAG-MCM3 as bait; called FLAG-MCM3 pulldown) on extracts of baculovirus co-infected Sf9 cells, 1 hr at 4 °C, washes with 250 mM KCl buffer pH 7.8, Western blot.
The target is the same in test [6]. Nature of the test: pull-down; tandem affinity (strep-Keap1 then FLAG-MCM3) from Sf9 cells expressing all six MCM2-7 subunits, Keap1 and MCM-BP, 100 mM KCl buffer, Coomassie stained gel, bands verified by mass spectrometry.

In the case of “MCM7 (mouse, wild type, baculovirus) (from UniProt Q61881 1-719)”, the binding result in test [1] is given as “binds”; in test [2], “no binding”; in test [3] it was “binds”.

B1: HA-MCM-BP (mouse, baculovirus) (natural protein, UniProt Q8R3C0 1-642, looked up)
chain: MPCGEDWLSHPLGIVQGFFAQNGVNPDWEKKVIEYFKEKLKENNAPKWVPSLNEVPLHYLKPNSFVKFRCMIQDMFDPEFYMGIYETVNQNTKARVLHFGKYRDVAECGPQQELDLSSPRSTTSERQTFYCVPVPGESSWVKEAYVNANQARVSPSTSYTPSRHKRSYEDDEDMDLQPSKQKEQHPGSRQAGGLGGLHWCGEPKRLETEASSGQQLNTLNLSSPFDLNFPLPGEKGPACLVKVYEDWDCFKVNDVLELYGVLSVDPVLSVLNSEERDASALLDPMECTDMAEEQRVHSPPASLVPRIHVILAQKLQHINPLLPTCLNKEESRSCQFVSNFMSELSPVRAELLGFLTHALLGDSLAAEYLILHLISTVYTRRDVLPLGKFTVNLSGCPQNSTFTEHLYRIIQHLVPASFRLQMTIENMNQLKLIPHKDYTANRLVSGLLQLPNNTSLVIDETLLEQGQLDTPGVHNVTALSNLITWQKVDYDFSYHQMEFPCNINVLITSEGRSLLPADCQIHLQPQLIPPNMEEYMNGLLSAVLPSVLNKFRIYLTLLRFLDYNLSDDITKAVEDDFVEMRKDDPQSITADDLHQLLVVARFLSLSVGQTTLSRERWLRAKQLELSRKARLQQQKSVNGNEL
notes: MCM-BP, mouse; cDNA cloned into pFastBac1; source: Sf9, baculovirus infected, in extract
In the case of B1, the binding result in test [4] is recorded as “no binding”; in test [5] it was “binds”; in test [6], “binds”.
